The full ranking holds about 81,000 sequences; the median of “one-hybrid fitness for binding NBS DNA” is about -0.1, and the highest 2% start at about 0.36. This is one part of the list.
B1: Caulobacter ParB omega fusion; a variant is named by its letters at X, in order, B8GW30 (parent)
chain: MESVVVGEPGMSEGRRGLGRGLSALLGEVDAAPAQAPGEQLGGSREAPIEILQRNPDQPRRTFREEDLEDLSNSIREKGVLQPILVRPSPDTAGEYQIVAGERAWRAAQRAGLKTVPIMVRELDDLAVLEIGIIENVQRADLNVLEEALSYKVLMEKFERTQENIAQTIGKSXSHVANXMRLLXLPDEVQSYLVSGELTAXHARAIAAAADPVALAKQIIEGGLSVRETEALARKAPNLSAGKSKGGRPPRVKDTDTQALESDLSSVLGLDVSIDHRGSTGTLTITYATLEQLDDLCNRLTRGI

Variants of: B1
Experiment: one-hybrid fitness for binding NBS DNA (the Noc-binding site; scaled: cognate 1, non-cognate 0); higher = stronger binding
Conditions: with NBS DNA site
Method in brief: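 Fitness is the rescaled log change in variant-to-wild-type read ratio, measured by Illumina sequencing of plasmids before and after bacterial one-hybrid selection. The scale puts cognate at 1 and non-cognate at 0. Selection of Caulobacter ParB libraries, four specificity codons randomised, took place in E. coli USO with a HIS3 reporter, site 19 bp from the promoter, over 48 hours at 37°C on M9-minus-histidine with 0.1 mM IPTG and 5 mM 3-AT.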

one-hybrid fitness for binding NBS DNA, 0.438:
RHSS

one-hybrid fitness for binding NBS DNA, 0.571:
QRGY

one-hybrid fitness for binding NBS DNA, 0.481:
RMNS

one-hybrid fitness for binding NBS DNA, 0.358:
RVAS

one-hybrid fitness for binding NBS DNA, ≤ 0.2:
RGDF
TTYR
WDNV
SRHM
PKLV
CTKG
RFYY
CSKM
TSKK
TDRN
AKKG
QFSI
CLGR
PITE
WQAT
DQRA
SSMG
TVHN
SSYV
TNCR
MGDY
YLRC
PHYC
MAWF
MRQE
YEEG
VEKC
VPNY
HTQS
GHVG
YVFG
HYCF
EGHE
CREK
EAIW
KAKD
LNWR
HYPP
NGHS
RNGM
PKAS
MTCR
AHGW
LSYN
VVRL
KDHP
LAIH
ACLL
HGHI
RLHV
QFMT
PQAN
INSI
MNLQ
MART
YNVL
ASDL
KDIG
QLYF
LLKS
QMPA
ENTW
FKGR
HYYI
LANA
ALVN
QWLH
LTYT
GCDL
TLTT
GPTQ
THAT
THPL
DNLS
NDSW
IQIR
RVGK
WSLC
RVGH
FRKM
AYFQ
WTLT
CFPC
SNYP
VFRT
HVTW
PRYG
SIWR
TERV
SKHN
GQIC
TGWC
MGAT
QQSK
PQWT
GKRG
SESY
HSLG
PYPF
ERVT
FASS
FEFD
GAPR
VSVA
FINL
STIF
FLTP
DAPY
VGQR
IPGS
RQCF
VFGK
MANG
FTRG
WGTC
VVCC
EKHR
RKHL
NDSY
DNGR
RLYG
TDIR
TSDW
DDYC
SVAN
AKVT
VQGW
EMNS
LWHC
LQYT
MPNS
KYSW
RWKS
KSQT
INNG
KVYG
DTLY
YHRL
KWTN
HKIG
QHWG
SCAG
AMEL
FFST
AQTY
VWAT
FGAI
PDCG
QAFI
STAW
EALR
ELTE
MIFR
VSEV
QPTC
MSWV
TAIW
HSTM
LKKI
IGQR
FGRD
YTHM
RSII
GSDV
VFDG
TWNE
LWNA
VNTF
TCDC
KRLG
DQLR
FGGP
FGNI
ACMF
HNNS
GMVT
PRAK
SHIF
AEVS
LSIV
LFTS
EKEY
YNLH
AAIC
QNEL
EVIS
TRNN
WWDG
RCEN
TQPC
ISLL
SMFR
PFQW
LATQ
GIVS
PYRI
RTPN
RKEA
ECLC
ASCA
ALRT
NREA
TQRE
PPVR
IRFN
RSID
WGPD
MPDS
PLAY
ELFR
NMGG
LVQR
RDPG
SFGT
PRPQ
WYSS
AHPW
PLDN
TRIH
GHMG
PMWT
RFCS
RAVH
LLMW
TDHV
EPHT
LSKQ
QYLN
PKLG
STMR
MNHT
QPPS
MSQV
ANNF
QFSS
IDEV
SEGN
GAIA
HRHH
RYNG
FRVR
PHEC
QNYA
TPTQ
MAIR
TAHF
PWMF
AIHN
SGPL
RQTK
PPHK
QPPV
TINI
RHAH
FGTL
CAWS
MTWT
HTCR
DTDY
VALR
PVYG
KCAC
DVVR
WFST
RDYE
FEVF
TKTS
DPLY
DKKT
TQEV
CNLS
HKDC
ERNY
RHVL
HPQI
GMQC
STMF
LWRF
MWES
MNFI
GYLM
KSSS
MQGS
KSYM
FIPR
CLLS
CKQA
LCCT
CSVD
TSGN
KQMC
CLWP
LLNL
KLWF
QYNK

one-hybrid fitness for binding NBS DNA, 0.511:
QKYT

one-hybrid fitness for binding NBS DNA, 0.424:
QKMT

one-hybrid fitness for binding NBS DNA, 0.314:
QITT

one-hybrid fitness for binding NBS DNA, 0.399:
QTTA

one-hybrid fitness for binding NBS DNA, 0.491:
RVGR

one-hybrid fitness for binding NBS DNA, 0.327:
RTNH

one-hybrid fitness for binding NBS DNA, 0.251:
HCKR

Reference: a collection of fitness landscapes (doi:10.1016/j.celrep.2020.107928)
